# Reference: paper PMC4336329 (PLoS ONE, 2015)
# In all, about 310,000 compounds went through this assay and about 2,200 (0.71%) showed an effect of 50% or more. The effect is printed as a negative number. This is one part of the list.
# Target: human ether-à-go-go-related gene (hERG) potassium channel (human, UniProt Q12809)
# Experiment: primary screen, population patch clamp on CHO cells stably expressing hERG
# Chain of human ether-à-go-go-related gene (hERG) potassium channel (Q12809 whole entry, looked up): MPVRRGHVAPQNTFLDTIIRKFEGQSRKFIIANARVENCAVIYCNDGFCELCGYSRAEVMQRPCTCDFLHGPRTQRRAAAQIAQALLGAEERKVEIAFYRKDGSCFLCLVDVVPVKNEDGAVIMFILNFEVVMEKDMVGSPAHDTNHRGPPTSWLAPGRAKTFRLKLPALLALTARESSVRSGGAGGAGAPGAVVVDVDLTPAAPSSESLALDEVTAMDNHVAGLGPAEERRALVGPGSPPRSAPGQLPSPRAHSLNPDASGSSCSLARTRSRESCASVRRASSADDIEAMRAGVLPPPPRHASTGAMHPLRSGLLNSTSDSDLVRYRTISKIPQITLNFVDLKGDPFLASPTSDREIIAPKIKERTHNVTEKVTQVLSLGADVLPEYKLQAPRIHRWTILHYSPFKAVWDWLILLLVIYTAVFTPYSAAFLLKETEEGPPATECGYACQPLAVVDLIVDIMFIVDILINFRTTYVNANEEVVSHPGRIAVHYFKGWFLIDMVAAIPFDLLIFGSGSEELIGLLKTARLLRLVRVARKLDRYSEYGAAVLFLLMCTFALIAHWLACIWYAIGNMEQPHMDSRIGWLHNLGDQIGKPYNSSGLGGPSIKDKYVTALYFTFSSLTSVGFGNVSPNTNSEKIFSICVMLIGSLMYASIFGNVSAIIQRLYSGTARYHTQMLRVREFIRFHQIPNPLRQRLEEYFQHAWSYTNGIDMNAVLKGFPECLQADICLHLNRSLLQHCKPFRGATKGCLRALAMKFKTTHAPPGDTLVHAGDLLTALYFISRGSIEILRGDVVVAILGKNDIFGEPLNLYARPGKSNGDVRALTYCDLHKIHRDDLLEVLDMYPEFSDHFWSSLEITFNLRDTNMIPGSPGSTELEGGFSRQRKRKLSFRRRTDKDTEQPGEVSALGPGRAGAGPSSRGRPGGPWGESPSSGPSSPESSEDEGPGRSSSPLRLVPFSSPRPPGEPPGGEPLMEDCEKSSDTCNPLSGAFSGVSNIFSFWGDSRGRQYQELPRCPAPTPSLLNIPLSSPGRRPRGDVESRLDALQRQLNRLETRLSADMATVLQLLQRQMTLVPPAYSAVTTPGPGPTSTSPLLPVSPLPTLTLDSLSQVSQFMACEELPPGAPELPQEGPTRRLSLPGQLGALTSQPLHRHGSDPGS
row,SMILES,"hERG current change (%, negative = inhibition) at 1uM"
1,CCOC(=O)c1oc2ccccc2c1NC(=O)COC,-5.28%
2,CCOCCC(=O)Nc1cc(Cl)ccc1OC,1.9%
3,CCn1c(SCC(=O)Nc2ccc3c(c2)c2ccccc2n3CC)nnc1-c1ccco1,14.9%
4,Cc1cccc(NS(=O)(=O)c2cccc3cccnc23)n1,3.93%
5,CC(C)c1ccc2c(c1)C(N1CCN(C)CC1)Cc1cccnc1S2.O=C(O)/C=C\C(=O)O (stereo not drawn),-5.95%
6,CCCCn1c(N)c(N(CC(C)C)C(=O)COC(=O)Cc2cccc(OC)c2)c(=O)[nH]c1=O,0.857%
7,Cc1ccc(C(=O)N/C(=C/c2ccco2)C(=O)N2CCC(C)CC2)cc1,15.2%
8,O=C(Nc1ccc(S(=O)(=O)Nc2ncccn2)cc1)c1ccccc1Cl,10.7%
9,CCOc1ncccc1C(=O)Oc1ccc2c(c1)OCO2,5.71%
10,Cc1cccc(C2CC(c3ccc(Br)cc3)Nc3nc(N)nn32)c1 (stereo not drawn),-5.88%
11,O=C(CSc1ncnc2c1cnn2-c1ccc(F)cc1)NCc1ccc2c(c1)OCO2,17.3%
12,Cc1ccc(C)c(NC(=O)CCN2CCOCC2)c1,19.6%
13,N#Cc1ccccc1NC(=O)c1ccc(-c2ccccc2Cl)o1,7.1%
14,O=C(NCc1cccnc1)C(=O)NCC(c1ccco1)N1CCN(c2ccccc2F)CC1 (stereo not drawn),11%
15,CC1(C)CC(=O)C2=C(C1)OC1=C(C(=O)CC(C)(C)C1)C2c1ccc(O)c([N+](=O)[O-])c1,8.7%
16,CC1CN(C(=O)c2cccc(S(=O)(=O)N3CCOCC3)c2)CC(C)O1 (stereo not drawn),2.61%
17,CC(C)Sc1nc2ccccc2[nH]1,17%
18,CCOC(=O)c1c(C2COc3ccccc3O2)csc1NC(=O)c1ccco1 (stereo not drawn),10.7%
19,O=C(O)C1CCCCC1C(=O)NCCCN1CCOCC1 (stereo not drawn),10.1%
20,O=C(COc1ccccc1Cl)Nc1ccc(N2CCN(C(=O)c3ccccc3)CC2)cc1,3.72%
21,CCCCOc1ccc(C(=O)N/C(=C\c2ccc([N+](=O)[O-])cc2)C(=O)OCc2ccco2)cc1,7.09%
22,COc1ccc(C(=O)NCCc2nnc(SCC(=O)Nc3ccc(Br)cc3)n2C)cc1,14.7%

row,SMILES,"hERG current change (%, negative = inhibition) at 1uM"
1,Cc1nc(NC(=O)CSc2nc(N)cc(N)n2)sc1C,4.51%
2,c1ccc(-c2c(-c3ccccc3)n(Cc3ccco3)c3ncnc(NCCCn4ccnc4)c23)cc1,-9.73%
3,O=C(Nc1ccccc1N1CCCCC1)C1CCN(S(=O)(=O)c2cccc(C(F)(F)F)c2)CC1,0.557%
4,N#Cc1c(NC(=O)c2ccc(Br)o2)n(-c2ccccc2)c2nc3ccccc3nc12,14.8%
5,O=C(CSc1nnc(NC(=O)C2CC(=O)N(c3ccc(F)cc3)C2)s1)NCC1CCCO1 (stereo not drawn),11.7%
6,COC(=O)CCNC(=O)c1ccc2nc(Cc3ccc(OC)cc3)oc2c1,13.8%
7,COc1cccc(NC(=O)CN(C)C(=O)c2ccccc2Sc2ccccc2C#N)c1,8.02%
8,COc1cccc(CNC(=O)c2ccc(NC(=O)CC3SC(N4CCCC4)=NC3=O)cc2)c1 (stereo not drawn),5.77%
9,CCn1cc(/C=C2/SC(=S)NC2=O)c(C)n1,10.5%
10,COc1ccc(/C=N/NC(=O)c2ccc(Cn3cc([N+](=O)[O-])cn3)o2)cc1O,15.8%
11,CCOc1ccc(N2C(=O)CC(S/C(N)=N/N=C/c3cccs3)C2=O)cc1 (stereo not drawn),15.4%
12,CC(C)Oc1cccc(C(=O)NC(=S)N2CCN(c3ccc(C(F)(F)F)cc3[N+](=O)[O-])CC2)c1,-1.55%
13,CCOC(=O)Nc1nc(C)c(C(=O)N(C)C)s1,-1.49%
14,CN(C)S(=O)(=O)NC(c1ccccc1)c1ccccc1,-3.03%
15,CCOC(=O)CNC(=O)c1sc(NC(=O)c2cccc(F)c2)nc1C,10.9%
16,CCOc1ccc(CCNC(=O)c2nnc(Cc3ccc(F)cc3)o2)cc1OCC,7.75%
17,FC(F)(F)COc1ccc(-c2nnc(SCc3c(Cl)cccc3Cl)o2)cn1,15.4%
18,CC1CN(c2ccc(S(=O)(=O)N3CCCC3)cn2)CC(C)O1 (stereo not drawn),14.3%
19,O=C(Nc1ccc(N2CCOCC2)c(S(=O)(=O)Nc2ccccc2Cl)c1)c1ccccc1,10.4%
20,CCN1CC=C2C(C#N)=C(N)C(C#N)(C#N)[C@H](c3ccoc3)[C@H]2C1,7.74%
21,O=c1cnnc(N/N=C/c2c[nH]c3ccccc23)[nH]1,12.2%
22,CCCc1cc(C(N)=O)c(NC(=O)c2cc(C)on2)s1,0.905%

row,SMILES,"hERG current change (%, negative = inhibition) at 1uM"
1,CCc1nnc(NC(=O)CCS(=O)(=O)c2ccc(C)cc2)s1,17.4%
2,CSc1nc2ccc(S(=O)(=O)Nc3c(C)n(C)n(-c4ccccc4)c3=O)cc2s1,12.2%
3,N#CCSc1nnc(COc2cccc3ccccc23)n1-c1cccc(Cl)c1,9.52%
4,CC(C)CC(=O)Nc1ccc(N2CCN(C(=O)c3cccs3)CC2)cc1,17.7%
5,O=C(CS(=O)(=O)c1ccccc1)Nc1nc(-c2ccccc2)cs1,-11.5%
6,COc1cccc(C(=O)Nc2cccc3ccccc23)c1OC,12.5%
7,O=C(Cn1cnc(S(=O)(=O)N2CCCC2)c1)Nc1cccc(Br)c1,22.2%
8,COCCCNc1nc2ccccc2nc1NS(=O)(=O)c1cccs1,15.1%
9,Cc1cc(C(=O)N2CCCC(Nc3ccccc3)C2)c2ccc(F)cc2n1 (stereo not drawn),13.3%
10,CCc1c(C)n([O-])c2c([n+]1=O)CCC2,12.1%
11,C/C(=N/NC(=O)c1cnccn1)c1ccncc1,6.15%
12,COc1cc(Cl)c(CN2CCC(CO)(CCOc3ccccc3)CC2)cc1OC,-85.1%
13,Cc1cc(NS(=O)(=O)c2ccc(-c3ccccc3)cc2)no1,8.87%
14,CN(C)S(=O)(=O)c1ccc(S(=O)(=O)NCc2cccs2)cc1,9.01%
15,Cc1ccc(N2CC(c3nc4ccccc4n3C)CC2=O)cc1C (stereo not drawn),5.47%
16,O=C(Nc1ccc2c(c1)CCC2)c1ccc(F)cc1,13.8%
17,Cc1noc(C)c1S(=O)(=O)Nc1ccccc1Oc1ccccc1,12.2%
18,COc1cc(OC)cc(C(=O)OC/C(O)=C(\C#N)c2nc3ccccc3[nH]2)c1,-0.646%
19,Cc1c(C=O)c(=O)n(-c2ccccc2)n1-c1ccccc1,13%
20,Cc1ncc(CO)c(/C=N/NC(=S)Nc2cccc(Cl)c2)c1O,14.8%
21,CC1=C(C(=O)Nc2cc(C(=O)N3CCN(c4cccc(C)c4)C(C)C3)ccc2C)SCCO1 (stereo not drawn),11.3%
22,COC(=O)c1ccccc1Oc1nc(Cl)cc(OC)n1,7.09%

row,SMILES,"hERG current change (%, negative = inhibition) at 1uM"
1,Cn1ncc(Cl)c1C(=O)Nc1ccc2c(c1)OCO2,18.1%
2,Cc1ccc(CCNC(=O)Cc2ccc(NC3=NC4CS(=O)(=O)CC4S3)cc2)cc1 (stereo not drawn),12.3%
3,Cc1cccc(-c2nnc(SCC(=O)Nc3cccc(C(=O)N4CCOCC4)c3)n2C)c1,1.11%
4,Cc1cccc(C(=O)OCC(=O)Nc2c(C)nn(-c3ccccc3)c2C)c1O,12.1%
5,CC(/C=C/C=C/c1ccccc1)=N/NC(=O)C(O)c1ccccc1 (stereo not drawn),12.5%
6,COc1ncnc2c1sc1nc(-c3ccccc3)c3c(c12)CCCC3,12.3%
7,CCn1cc(C=C2C(=O)NC(=O)NC2=O)c2ccccc21,13.8%
8,COC(/C=C/Nc1ccc(OC)cc1)=C(C#N)C#N,-20.9%
9,COc1ccc(-n2cnnc2SCC(=O)Nc2cccc([N+](=O)[O-])c2)cc1,8.86%
10,CCCCOC(=O)CSC1=C(C#N)C(c2ccccc2OC)C(C#N)C(=O)N1 (stereo not drawn),15.5%
11,CNc1nc(C)c(C(C)=O)cc1C#N,13%
12,c1ccc2oc(SCc3nc4ccccc4s3)nc2c1,6.91%
13,CCOC(=O)c1sc(NC(=O)CN2C(=O)NC3(CCCCCCC3)C2=O)c(C(=O)OCC)c1C,8.08%
14,COc1ccc(CNc2nc3ccccc3n2Cc2ccccc2)cc1OC,-10.5%
15,C/C(=N\NC(=O)CNc1cccc2ccccc12)c1ccc(Br)s1,4.48%
16,CC(C)Cc1nnc(NC(=O)c2ccc3c(=O)n4c(nc3c2)CCC4)s1,4.36%
17,Cc1ccccc1NC(=O)CSc1nc(Nc2ccccc2)nc(N2CCOCC2)n1,2.77%
18,CCOC(=O)Cc1csc(NC(=O)Nc2ccc(C)cc2)n1,5.98%
19,CCOc1ccc(CCNC(=O)c2ccc(Cl)c(S(=O)(=O)N3CCOCC3)c2)cc1OCC,-2.82%
20,Cc1cc(OCCCC(=O)NCCN2C(=O)S/C(=C\c3cccnc3)C2=O)ccc1Cl,3.8%
21,CCOc1ccc2nc(N3CCCN(C(=O)Nc4ccccc4C)CC3)c(C#N)cc2c1,10.5%
